Changes are numbered by the printed parent chain. Numbers in names are those of the source. Results are given in words; binding and its absence hold for the method and conditions named. In cells and extracts the contact can be indirect. Some binding calls cover weakened binding; strength is not graded here. Tags and fused reporters may be left off the sequences shown.
T1: 3xFLAG-tagged ATF7IP WT (transiently expressed in HEK293T cells) (mouse) (UniProt Q7TT18)
T1 sequence: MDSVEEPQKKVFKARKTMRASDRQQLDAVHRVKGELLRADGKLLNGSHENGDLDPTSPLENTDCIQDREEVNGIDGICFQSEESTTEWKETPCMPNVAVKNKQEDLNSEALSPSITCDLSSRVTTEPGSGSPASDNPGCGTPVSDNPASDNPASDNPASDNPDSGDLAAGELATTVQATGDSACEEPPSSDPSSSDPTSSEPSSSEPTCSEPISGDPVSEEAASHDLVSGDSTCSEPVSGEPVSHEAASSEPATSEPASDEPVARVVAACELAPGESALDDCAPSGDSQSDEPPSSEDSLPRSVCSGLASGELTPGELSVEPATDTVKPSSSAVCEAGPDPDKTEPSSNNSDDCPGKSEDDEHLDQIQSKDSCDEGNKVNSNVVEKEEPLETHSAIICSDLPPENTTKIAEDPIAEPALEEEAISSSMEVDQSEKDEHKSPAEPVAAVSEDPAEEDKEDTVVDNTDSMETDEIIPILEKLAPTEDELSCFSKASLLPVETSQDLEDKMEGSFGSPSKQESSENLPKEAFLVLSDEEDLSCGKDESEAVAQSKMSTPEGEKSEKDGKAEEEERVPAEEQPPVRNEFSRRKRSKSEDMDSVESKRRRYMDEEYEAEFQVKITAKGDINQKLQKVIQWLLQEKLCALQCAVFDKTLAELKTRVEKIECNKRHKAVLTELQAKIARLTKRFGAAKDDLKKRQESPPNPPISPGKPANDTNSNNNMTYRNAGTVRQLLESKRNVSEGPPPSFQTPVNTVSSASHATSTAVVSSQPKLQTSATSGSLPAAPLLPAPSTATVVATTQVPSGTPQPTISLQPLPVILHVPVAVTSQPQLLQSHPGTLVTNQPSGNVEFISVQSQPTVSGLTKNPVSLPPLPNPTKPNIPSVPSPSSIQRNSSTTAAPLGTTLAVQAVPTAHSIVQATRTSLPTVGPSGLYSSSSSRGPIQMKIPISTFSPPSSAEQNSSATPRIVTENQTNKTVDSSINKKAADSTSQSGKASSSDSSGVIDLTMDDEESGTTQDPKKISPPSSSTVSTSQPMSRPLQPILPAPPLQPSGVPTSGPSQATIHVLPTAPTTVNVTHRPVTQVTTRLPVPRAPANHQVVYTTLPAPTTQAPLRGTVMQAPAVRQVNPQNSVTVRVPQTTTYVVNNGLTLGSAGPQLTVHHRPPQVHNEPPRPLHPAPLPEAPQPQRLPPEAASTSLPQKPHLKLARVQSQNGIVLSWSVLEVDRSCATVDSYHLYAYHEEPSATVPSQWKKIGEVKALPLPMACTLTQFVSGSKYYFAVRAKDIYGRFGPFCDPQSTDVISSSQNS

Chains of the proteins cited; added tags and fusions are not shown.
UniProt A2A791: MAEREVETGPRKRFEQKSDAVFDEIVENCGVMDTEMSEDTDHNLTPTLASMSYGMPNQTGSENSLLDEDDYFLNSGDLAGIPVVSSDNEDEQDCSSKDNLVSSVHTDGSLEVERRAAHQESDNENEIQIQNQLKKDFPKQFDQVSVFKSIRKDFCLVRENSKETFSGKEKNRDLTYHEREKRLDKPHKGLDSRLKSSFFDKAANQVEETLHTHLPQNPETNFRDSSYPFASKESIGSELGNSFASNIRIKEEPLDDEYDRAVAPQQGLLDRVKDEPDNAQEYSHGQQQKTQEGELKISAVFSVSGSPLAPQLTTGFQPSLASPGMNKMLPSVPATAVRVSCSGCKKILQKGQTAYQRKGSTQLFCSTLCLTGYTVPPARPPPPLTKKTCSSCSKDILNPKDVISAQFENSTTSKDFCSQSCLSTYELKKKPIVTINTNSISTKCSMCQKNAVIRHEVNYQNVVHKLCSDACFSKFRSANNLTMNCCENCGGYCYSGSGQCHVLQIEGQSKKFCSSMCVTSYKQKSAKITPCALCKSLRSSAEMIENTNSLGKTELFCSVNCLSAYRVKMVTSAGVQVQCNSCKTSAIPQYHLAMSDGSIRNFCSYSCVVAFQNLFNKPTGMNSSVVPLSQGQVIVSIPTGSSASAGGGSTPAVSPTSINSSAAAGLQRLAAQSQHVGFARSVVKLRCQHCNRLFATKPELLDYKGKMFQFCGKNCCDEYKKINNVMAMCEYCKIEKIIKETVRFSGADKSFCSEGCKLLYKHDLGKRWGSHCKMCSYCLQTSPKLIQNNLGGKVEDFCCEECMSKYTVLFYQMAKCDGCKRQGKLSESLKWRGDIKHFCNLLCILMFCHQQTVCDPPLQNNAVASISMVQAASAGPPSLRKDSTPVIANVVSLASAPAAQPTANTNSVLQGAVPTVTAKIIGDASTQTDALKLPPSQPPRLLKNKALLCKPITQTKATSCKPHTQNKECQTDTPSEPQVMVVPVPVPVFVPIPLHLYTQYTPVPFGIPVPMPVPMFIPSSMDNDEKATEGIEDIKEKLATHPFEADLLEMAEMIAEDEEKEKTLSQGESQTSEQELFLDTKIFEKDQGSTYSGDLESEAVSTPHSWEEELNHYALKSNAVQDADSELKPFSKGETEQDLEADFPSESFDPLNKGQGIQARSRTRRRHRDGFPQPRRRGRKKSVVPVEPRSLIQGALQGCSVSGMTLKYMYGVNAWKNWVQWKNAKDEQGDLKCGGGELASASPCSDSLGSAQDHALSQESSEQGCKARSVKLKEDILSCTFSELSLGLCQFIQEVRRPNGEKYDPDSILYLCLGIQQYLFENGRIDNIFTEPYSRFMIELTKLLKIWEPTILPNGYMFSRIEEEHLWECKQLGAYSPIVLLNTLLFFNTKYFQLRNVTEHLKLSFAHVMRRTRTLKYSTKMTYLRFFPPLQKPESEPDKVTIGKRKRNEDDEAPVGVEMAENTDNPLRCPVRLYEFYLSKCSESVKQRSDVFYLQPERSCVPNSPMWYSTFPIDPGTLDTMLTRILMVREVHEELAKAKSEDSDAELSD
UniProt Q5DTW7: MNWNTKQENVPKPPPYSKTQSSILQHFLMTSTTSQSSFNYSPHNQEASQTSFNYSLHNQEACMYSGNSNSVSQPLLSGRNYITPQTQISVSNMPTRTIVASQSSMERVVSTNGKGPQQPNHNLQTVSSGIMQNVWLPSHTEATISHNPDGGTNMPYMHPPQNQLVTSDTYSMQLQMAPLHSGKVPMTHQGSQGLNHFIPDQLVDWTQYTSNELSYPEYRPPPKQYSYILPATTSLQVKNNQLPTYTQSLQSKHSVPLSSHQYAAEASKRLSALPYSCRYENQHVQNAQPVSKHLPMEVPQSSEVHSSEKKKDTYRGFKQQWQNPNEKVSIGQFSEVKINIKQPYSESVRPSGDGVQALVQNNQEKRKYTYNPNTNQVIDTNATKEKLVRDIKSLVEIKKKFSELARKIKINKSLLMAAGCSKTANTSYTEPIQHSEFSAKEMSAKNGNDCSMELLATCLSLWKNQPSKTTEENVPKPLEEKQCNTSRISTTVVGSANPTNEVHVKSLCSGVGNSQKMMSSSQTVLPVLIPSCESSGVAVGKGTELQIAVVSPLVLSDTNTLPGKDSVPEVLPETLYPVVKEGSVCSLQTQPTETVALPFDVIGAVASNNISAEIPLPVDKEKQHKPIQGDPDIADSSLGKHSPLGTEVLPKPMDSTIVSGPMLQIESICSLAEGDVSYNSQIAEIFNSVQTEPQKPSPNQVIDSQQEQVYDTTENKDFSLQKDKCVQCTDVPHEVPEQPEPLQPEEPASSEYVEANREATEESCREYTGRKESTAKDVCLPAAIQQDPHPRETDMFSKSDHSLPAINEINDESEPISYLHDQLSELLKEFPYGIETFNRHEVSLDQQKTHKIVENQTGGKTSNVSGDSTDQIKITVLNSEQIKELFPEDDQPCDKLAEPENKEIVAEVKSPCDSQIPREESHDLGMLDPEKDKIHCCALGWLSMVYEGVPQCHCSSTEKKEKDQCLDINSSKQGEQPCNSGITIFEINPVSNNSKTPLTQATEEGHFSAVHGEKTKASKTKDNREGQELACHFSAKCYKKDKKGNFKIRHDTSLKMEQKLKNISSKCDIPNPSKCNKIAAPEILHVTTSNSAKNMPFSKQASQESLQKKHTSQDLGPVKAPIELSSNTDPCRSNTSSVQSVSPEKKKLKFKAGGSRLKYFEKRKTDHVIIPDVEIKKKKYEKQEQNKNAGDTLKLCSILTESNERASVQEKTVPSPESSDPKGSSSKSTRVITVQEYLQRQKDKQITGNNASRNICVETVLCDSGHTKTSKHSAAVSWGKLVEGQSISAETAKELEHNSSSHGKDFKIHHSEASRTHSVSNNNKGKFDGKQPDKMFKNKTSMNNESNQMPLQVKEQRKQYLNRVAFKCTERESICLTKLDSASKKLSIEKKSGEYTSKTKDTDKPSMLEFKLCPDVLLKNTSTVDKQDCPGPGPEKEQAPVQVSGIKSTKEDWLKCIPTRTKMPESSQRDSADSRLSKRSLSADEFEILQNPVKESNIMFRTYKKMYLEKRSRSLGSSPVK

T2: 3xFLAG-tagged ATF7IP dFNIII mutant (transiently expressed in HEK293T cells) (mouse) (UniProt Q7TT18)
T2 sequence: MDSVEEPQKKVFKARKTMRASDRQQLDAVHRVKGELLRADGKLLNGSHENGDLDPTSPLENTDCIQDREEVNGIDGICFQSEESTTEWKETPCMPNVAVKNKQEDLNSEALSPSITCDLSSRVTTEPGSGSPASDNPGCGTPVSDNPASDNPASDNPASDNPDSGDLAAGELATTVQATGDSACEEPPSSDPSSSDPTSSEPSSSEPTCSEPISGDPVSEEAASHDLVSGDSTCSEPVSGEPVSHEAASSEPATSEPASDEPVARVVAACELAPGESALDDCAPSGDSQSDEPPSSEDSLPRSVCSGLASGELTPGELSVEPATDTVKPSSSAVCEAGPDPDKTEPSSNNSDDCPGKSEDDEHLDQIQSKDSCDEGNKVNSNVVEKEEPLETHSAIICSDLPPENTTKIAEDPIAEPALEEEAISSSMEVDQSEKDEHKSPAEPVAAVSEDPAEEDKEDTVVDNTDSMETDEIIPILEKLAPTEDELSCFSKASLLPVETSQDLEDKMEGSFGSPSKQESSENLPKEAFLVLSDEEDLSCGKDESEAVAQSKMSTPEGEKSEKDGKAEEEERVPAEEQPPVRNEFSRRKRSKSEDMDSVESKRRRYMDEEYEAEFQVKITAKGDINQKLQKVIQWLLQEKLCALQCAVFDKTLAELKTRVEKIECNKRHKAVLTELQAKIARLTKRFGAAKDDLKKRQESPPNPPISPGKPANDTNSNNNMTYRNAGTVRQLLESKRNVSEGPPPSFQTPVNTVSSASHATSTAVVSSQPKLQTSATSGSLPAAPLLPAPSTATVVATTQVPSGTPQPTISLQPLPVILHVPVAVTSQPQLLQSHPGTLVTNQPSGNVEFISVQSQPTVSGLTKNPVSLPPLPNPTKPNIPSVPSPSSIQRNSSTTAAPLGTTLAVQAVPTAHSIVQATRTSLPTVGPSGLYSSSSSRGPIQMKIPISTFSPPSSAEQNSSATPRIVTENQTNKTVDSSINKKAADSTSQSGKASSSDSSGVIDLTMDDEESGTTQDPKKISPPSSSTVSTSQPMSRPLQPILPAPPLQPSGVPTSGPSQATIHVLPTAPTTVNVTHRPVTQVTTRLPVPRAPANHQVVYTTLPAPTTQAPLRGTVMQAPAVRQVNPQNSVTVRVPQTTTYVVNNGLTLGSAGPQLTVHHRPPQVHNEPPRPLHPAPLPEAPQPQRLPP

B1: V5-tagged MGA (residues 2362-3003) (domain or fragment, UniProt A2AWL7 2362-3003)
chain: YYRRTHTANERRRRGEMRDLFEKLKITLGLLHSSKVSKSLILNRAFSEIQGLTDQADKLIGQKNLLSRKRSILIRKVSSLSGKTEEVVLKKLEYIYAKQQALEAQKRKKKLGSDEFCVSPRIGTQLEGSSASSVDLGQMLMNNRRGKPLILSRKRDQATENASPSDTPHSSANLVMTPQGQLLTLKGPLFSGPVVAVSPALLEGGLKPQVASSTMSQSENDDLFMMPRIVNVTSLAAEEDLGGMSGNKYRHEVPDGKPLDHLRDIAGSEASSLKDTERISSRGNHRDSRKALGPTQVLLANKDSGFPHVADVSTMQAAQEFIPKNMSGDVRGHRYKWKECELRGERLKSKESQFHKLKMKDLKDSSIEMELRKVASAIEEAALHPSELLTNMEDEDDTDETLTSLLNEIAFLNQQLNDDSGLAELSGSMDTEFSGDAQRAFISKLAPGNRSAFQVGHLGAGVKELPDVQEESESISPLLLHLEDDDFSENEKQLGDTASEPDVLKIVIDPEIKDSLVSHRKSSDGGQSTSGLPAEPESVSSPPILHMKTGPENSNTDTLWRPMPKLAPLGLKVANPPSDADGQSLKVMPALAPIAAKVGSIGHKMNLAGIDQEGRGSKVMPTLAPVVPKLGNSGAPSSSSGK
B2: V5-ZMYM2 FAM1 mutant (V187R/L190R) (protein, UniProt Q9CU65 1-1376)
chain: MDTSSVGTLELTDQTPVLLGSTAMATSLTNVGNSFSGPPNPLVSRSSKFQNSSVEDDDDVVFIEPVQPPPSSAPLVADQRPITFTSSKNEELQGNDPKILPSSKELAPQKGSVSETIVIDDEEDMETNQGQEKSSSNFIERRPSETKNRTNDVDFSSSTFSRSKVNAGVSNSGITTEPDSEIQIANRTTRETGVSSVSDGQLESTDGRDMNLMITHVTSLHNTSLGDGSNGLQSSNFGVNIQTYTPSLTSQTKAGVGPFNPGRMNVAGDVFQNGESAPHHNPDSWISQSASFPRNQKQQGVDSLSPVASLPKQIFQPSNQQPTKPVKVTCANCKKPLQKGQTAYQRKGSAHLFCSTTCLSSFSHKPAPKKLCVMCKKDITTMKGTIVAQVDSSESFQEFCSTSCLSLYEDKQSPAKGALNKSRCTICGKLTEIRHEVSFKNMTHKLCSDHCFNRYRMANGLIMNCCEQCGEYLPSKGAGNNVLVVDGQQKRFCCQSCVTEYKQVGSHPSFLKEVRDHMQDSFLMQPEKYGKLTTCTGCRTQCRFFDMTQCIGPNGYMEPYCSTACMNSHKTKYAKSQSLGIICHFCKRNSLPQYQATMPDGKLYNFCNSSCVAKFQALSMQSSPNGQFVAPSDIQLKCNYCKNSFCSKPEILEWENKVHQFCSKTCSDDYKKLHCIVTYCEYCQEEKTLHETVNFSGVKRPFCSEGCKLLYKQDFARRLGLRCVTCNYCSQLCKKGATKELDGVVRDFCSEDCCKKFQEWYYKAARCDCCKSQGTLKERVQWRGEMKHFCDQHCLLRFYCQQNEPNMTTQKGPENLHYDQGCQTSRTKMTGSAPPPSPTPNKEMKNKAILCKPLTMTKATYCKPHMQTKSCQTDENWKTEYVPVPIPVPVYVPVPMHMYSQNIPVPTTVPVPVPVPVFLPAPLDSSEKIPATVEDLKSKVSSDPLDSELLTMTDMMTEEEGKAEASNINSVIIETDIIGSDLTKNSDPDIQSNMPDVPYEPDLDIEIDFPRAAEELDMENEFLLPPVFGEEYEEQPRPRSKKKGTKRKAVSGYQSHDDSSDNSECSFPFKYTYGVNAWKHWVKTRQLDEDLLVLDELKSSKSVKLKEDLLSHTTAELNYGLAHFVNEIRRPNGENYAPDSIYYLCLGIQEYLCGSNRKDNIFIDPGYQMFEQELNKILRSWQPSILPDGSIFSRVEEDYLWRIKQLGSHSPVALLNTLFYFNTKYFGLKTVEQHLRLSFGTVFRHWKKNPLTMENKACLRYQVSSLCGTDNEDKIATGKRKHEDDEPVFEQVENTANPSRCPVKMFECYLSKSPQNLNQRMDVFYLQPECSSSTDSPVWYTSTSLDRNTLENMLVRVLLVKDIYDKDNYELDEDTD
B3: V5-ZMYM2 FAM2 mutant (V217R/L220R) (protein, UniProt Q9CU65 1-1376)
chain: B2 chain with R187V, R190L, V217R, L220R
B4: V5-ZMYM2 FAM1 and FAM2 double mutant (protein, UniProt Q9CU65 1-1376)
chain: B2 chain with V217R, L220R
B5: V5-ZMYM2 d39aa mutant (lacks residues 182-220) (protein, UniProt Q9CU65)
chain: MDTSSVGTLELTDQTPVLLGSTAMATSLTNVGNSFSGPPNPLVSRSSKFQNSSVEDDDDVVFIEPVQPPPSSAPLVADQRPITFTSSKNEELQGNDPKILPSSKELAPQKGSVSETIVIDDEEDMETNQGQEKSSSNFIERRPSETKNRTNDVDFSSSTFSRSKVNAGVSNSGITTEPDSEHNTSLGDGSNGLQSSNFGVNIQTYTPSLTSQTKAGVGPFNPGRMNVAGDVFQNGESAPHHNPDSWISQSASFPRNQKQQGVDSLSPVASLPKQIFQPSNQQPTKPVKVTCANCKKPLQKGQTAYQRKGSAHLFCSTTCLSSFSHKPAPKKLCVMCKKDITTMKGTIVAQVDSSESFQEFCSTSCLSLYEDKQSPAKGALNKSRCTICGKLTEIRHEVSFKNMTHKLCSDHCFNRYRMANGLIMNCCEQCGEYLPSKGAGNNVLVVDGQQKRFCCQSCVTEYKQVGSHPSFLKEVRDHMQDSFLMQPEKYGKLTTCTGCRTQCRFFDMTQCIGPNGYMEPYCSTACMNSHKTKYAKSQSLGIICHFCKRNSLPQYQATMPDGKLYNFCNSSCVAKFQALSMQSSPNGQFVAPSDIQLKCNYCKNSFCSKPEILEWENKVHQFCSKTCSDDYKKLHCIVTYCEYCQEEKTLHETVNFSGVKRPFCSEGCKLLYKQDFARRLGLRCVTCNYCSQLCKKGATKELDGVVRDFCSEDCCKKFQEWYYKAARCDCCKSQGTLKERVQWRGEMKHFCDQHCLLRFYCQQNEPNMTTQKGPENLHYDQGCQTSRTKMTGSAPPPSPTPNKEMKNKAILCKPLTMTKATYCKPHMQTKSCQTDENWKTEYVPVPIPVPVYVPVPMHMYSQNIPVPTTVPVPVPVPVFLPAPLDSSEKIPATVEDLKSKVSSDPLDSELLTMTDMMTEEEGKAEASNINSVIIETDIIGSDLTKNSDPDIQSNMPDVPYEPDLDIEIDFPRAAEELDMENEFLLPPVFGEEYEEQPRPRSKKKGTKRKAVSGYQSHDDSSDNSECSFPFKYTYGVNAWKHWVKTRQLDEDLLVLDELKSSKSVKLKEDLLSHTTAELNYGLAHFVNEIRRPNGENYAPDSIYYLCLGIQEYLCGSNRKDNIFIDPGYQMFEQELNKILRSWQPSILPDGSIFSRVEEDYLWRIKQLGSHSPVALLNTLFYFNTKYFGLKTVEQHLRLSFGTVFRHWKKNPLTMENKACLRYQVSSLCGTDNEDKIATGKRKHEDDEPVFEQVENTANPSRCPVKMFECYLSKSPQNLNQRMDVFYLQPECSSSTDSPVWYTSTSLDRNTLENMLVRVLLVKDIYDKDNYELDEDTD

How the values were obtained:
[1] = target: T1, 3xFLAG-tagged ATF7IP WT (transiently expressed in HEK293T cells) (mouse); assay: co-IP; HEK293T cells transiently co-transfected with 3xFLAG-ATF7IP (WT or dFNIII) and V5-tagged proteins; precipitated with anti-FLAG M2 affinity gel, 4 °C; western blot; which lysis buffer was used is not said
[2] = target: T2, 3xFLAG-tagged ATF7IP dFNIII mutant (transiently expressed in HEK293T cells) (mouse); assay: as above

Molecule | binding [1] | binding [2]
mouse ZMYM4 (expressed in HEK293T cells) (from UniProt A2A791 1-1549) | binds | 
V5-tagged mouse KIAA1551 (from UniProt Q5DTW7 1-1521) | binds | no binding
B1 | binds | no binding
B2 | binds | 
B3 | binds | 
B4 | no binding | 
B5 | no binding | 

Reference: publication PMC7706265
